# Results: the supplement of paper PMC6531468
# The list shows a part of the results. Values come from read counts of a selection and are noisy. Each score is taken over the longer molecules that contain the sequence shown.
# How the values were obtained:
# Assay in all cases: 6-mer SELEX enrichment z-score vs GST control; IMP3 is the RNA-binding protein IGF2BP3; higher = more enriched by binding
# IMP3 KH1-4 = conditions: construct: KH1-4 (164-579); SELEX round: R4
# Protocol: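 SELEX-seq with GST-tagged IMP3 KH1-4 (Pro164-Lys579) and an N40 RNA pool, round 4. 6-mer z-score of sequence-tag enrichment normalised to the corresponding GST SELEX round; RNA k-mers written as DNA (T for U).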
# IMP3 RRM1-2 = conditions: construct: RRM1-2 (1-163); SELEX round: R2
# Protocol: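 SELEX-seq with GST-tagged IMP3 RRM1-2 (Met1-Asn163) and an N40 RNA pool, round 2. 6-mer enrichment z-score normalised to GST SELEX. RNA written as DNA (T = U).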
# IMP3 full-length = IMP3 full-length (UniProt O00425); conditions: construct: FL IMP3 (1-579); SELEX round: R4
# Protocol: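 SELEX-seq with GST-tagged full-length IMP3 and an N40 RNA pool, round 4. Each 6-mer is scored as an enrichment z-score of sequence tags containing it, normalised to the matching GST SELEX round. RNA written as DNA (T = U).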
# IMP3 KH1-2 = conditions: construct: KH1-2 (164-376); SELEX round: R4
# Protocol: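 SELEX-seq with GST-tagged IMP3 KH1-2 (Pro164-Phe376) and an N40 RNA pool, round 4 (stringent 300/600 mM KCl washes). 6-mer z-score of sequence-tag enrichment normalised to the corresponding GST SELEX round; RNA k-mers written as DNA (T for U).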
# IMP3 KH3-4 = conditions: construct: KH3-4 (377-579); SELEX round: R4
# Protocol: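 SELEX-seq with GST-tagged IMP3 KH3-4 (Pro377-Lys579) and an N40 RNA pool, round 4. 6-mer z-score of sequence-tag enrichment normalised to the corresponding GST SELEX round; RNA k-mers written as DNA (T for U).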
# Chain of IMP3 KH1-2 (chain, as listed by the source): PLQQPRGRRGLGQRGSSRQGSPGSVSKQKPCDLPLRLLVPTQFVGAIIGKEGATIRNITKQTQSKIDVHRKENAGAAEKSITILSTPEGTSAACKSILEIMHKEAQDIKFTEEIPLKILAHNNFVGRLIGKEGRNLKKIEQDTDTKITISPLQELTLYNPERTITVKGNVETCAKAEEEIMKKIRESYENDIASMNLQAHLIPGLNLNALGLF
# Chain of IMP3 KH1-4 (chain, as listed by the source): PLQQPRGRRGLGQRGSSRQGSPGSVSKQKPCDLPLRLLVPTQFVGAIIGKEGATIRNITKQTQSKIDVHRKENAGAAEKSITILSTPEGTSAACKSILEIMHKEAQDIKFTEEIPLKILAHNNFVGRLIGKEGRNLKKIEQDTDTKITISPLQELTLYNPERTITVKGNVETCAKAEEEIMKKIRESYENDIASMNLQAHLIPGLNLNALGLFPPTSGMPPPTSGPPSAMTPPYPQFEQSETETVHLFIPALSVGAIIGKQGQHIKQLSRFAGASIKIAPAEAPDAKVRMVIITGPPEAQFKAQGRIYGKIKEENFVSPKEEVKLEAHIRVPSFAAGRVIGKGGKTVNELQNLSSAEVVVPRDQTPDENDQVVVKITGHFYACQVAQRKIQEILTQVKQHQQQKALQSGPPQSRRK
# Chain of UniProt O00425 (O00425 whole entry): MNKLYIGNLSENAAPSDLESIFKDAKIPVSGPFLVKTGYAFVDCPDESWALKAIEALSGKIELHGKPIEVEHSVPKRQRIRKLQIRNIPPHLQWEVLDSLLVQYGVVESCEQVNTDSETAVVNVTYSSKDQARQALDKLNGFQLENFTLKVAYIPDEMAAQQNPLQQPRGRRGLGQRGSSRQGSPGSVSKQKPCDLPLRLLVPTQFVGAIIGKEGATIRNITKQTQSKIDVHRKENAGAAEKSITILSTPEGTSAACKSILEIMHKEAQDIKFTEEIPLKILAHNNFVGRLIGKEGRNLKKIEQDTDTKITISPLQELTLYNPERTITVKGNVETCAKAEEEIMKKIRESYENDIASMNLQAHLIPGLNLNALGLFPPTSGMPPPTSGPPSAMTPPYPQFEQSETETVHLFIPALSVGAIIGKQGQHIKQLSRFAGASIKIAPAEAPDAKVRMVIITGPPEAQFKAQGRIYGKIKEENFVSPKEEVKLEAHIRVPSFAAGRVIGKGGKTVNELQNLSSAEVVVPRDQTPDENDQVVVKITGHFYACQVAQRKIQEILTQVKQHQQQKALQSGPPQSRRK
# Chain of IMP3 RRM1-2 (chain, as listed by the source): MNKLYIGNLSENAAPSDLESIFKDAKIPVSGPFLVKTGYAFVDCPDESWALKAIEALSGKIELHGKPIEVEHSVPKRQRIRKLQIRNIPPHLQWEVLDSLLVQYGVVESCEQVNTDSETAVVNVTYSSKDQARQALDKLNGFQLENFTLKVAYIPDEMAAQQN
# Chain of IMP3 KH3-4 (chain, as listed by the source): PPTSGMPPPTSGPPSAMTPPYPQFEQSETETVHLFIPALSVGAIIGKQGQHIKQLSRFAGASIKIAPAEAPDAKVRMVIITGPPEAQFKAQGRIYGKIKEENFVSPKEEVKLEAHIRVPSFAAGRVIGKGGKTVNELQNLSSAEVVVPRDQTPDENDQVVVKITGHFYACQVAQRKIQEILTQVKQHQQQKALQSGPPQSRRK
Sequence,6-mer SELEX enrichment z-score (IMP3 KH1-4),6-mer SELEX enrichment z-score (IMP3 RRM1-2),6-mer SELEX enrichment z-score (IMP3 full-length),6-mer SELEX enrichment z-score (IMP3 KH1-2),6-mer SELEX enrichment z-score (IMP3 KH3-4)
TTGAGT,-0.557,0.167,-0.389,-0.541,-0.349
CTCGTA,-0.672,0.091,-0.275,-0.592,-0.564
TGCTCA,-0.147,0.374,0.092,-0.119,-0.257
TCGACC,-1.08,-0.097,-0.508,-1.12,-1.35
CAAGGG,-0.129,-0.077,0.159,-0.005,-0.021
CGCGGC,0.76,0.198,1.6,0.589,0.573
AACGTA,-1.74,-1.07,-1.52,-1.78,-1.51
TATGCA,1.11,0.21,0.4,0.882,0.983
GCTCGA,-1.11,0.165,-0.276,-0.886,-0.796
CTCTGG,-0.409,0.262,0.011,-0.342,-0.27
CTACCG,-0.615,-0.62,-0.613,-0.454,-0.906
TGGATT,0.477,0.172,0.002,0.311,0.586
ACAGTA,0.69,0.354,0.997,0.715,0.532
TCGTAC,-0.452,0.133,0.016,-0.466,-0.478
CACTCA,0.002,2.7,0.97,0.091,-0.565
TACTTT,0.668,0.248,0.069,0.734,0.846
CACGTC,-0.448,0.429,0.649,-0.542,-0.801
GGATTC,0.398,0.069,0.284,0.274,0.379
ATCGTA,-0.405,-0.079,-0.286,-0.491,-0.354
GACGAC,-1.03,-1.1,-0.644,-1.05,-1.29
AAGCCG,-0.804,-0.965,-0.372,-0.687,-0.842
GCTCAG,-0.373,0.296,0.512,-0.144,-0.248
TAGAGA,0.255,-0.7,-0.366,0.13,0.698
ATGCGA,-0.594,-0.494,-0.429,-0.7,-0.501

Sequence,6-mer SELEX enrichment z-score (IMP3 KH1-4),6-mer SELEX enrichment z-score (IMP3 RRM1-2),6-mer SELEX enrichment z-score (IMP3 full-length),6-mer SELEX enrichment z-score (IMP3 KH1-2),6-mer SELEX enrichment z-score (IMP3 KH3-4)
GCAACA,0.868,1.77,2.34,0.806,0.434
GAGACG,-0.955,-1.02,-0.635,-0.891,-0.898
TCAGAG,-0.612,0.584,0.41,-0.541,-0.453
CCAATG,-0.65,-0.68,-0.835,-0.813,-0.918
TCGAGG,-0.853,0.113,-0.019,-0.651,-0.531
TCAGCG,-1.36,0.476,-0.03,-1.24,-1.18
AACCTT,-0.592,-0.612,-1.26,-0.562,-0.802
CCGGAA,-0.479,-1.31,-0.657,-0.461,-0.56
ATCCTC,0.198,0.152,-0.122,0.179,-0.324
ACCTTG,-1.31,-0.295,-1.11,-1.3,-1.31
TATAGG,0.869,0.265,0.344,0.706,1.17
CCAGTG,-0.344,-0.336,-0.107,-0.339,-0.481
CCGGAT,0.042,-0.597,-0.06,0.037,-0.006
CGGTCG,0.215,0.219,0.695,0.186,0.102
AACTTG,-0.85,-0.474,-0.814,-0.877,-0.757
GCGGTA,-0.203,0.095,0.086,-0.211,-0.06
TCTAGG,-0.116,0.312,0.08,-0.059,0.053
CTGATC,0.066,-0.008,-0.052,-0.033,-0.256
CCGAGG,-0.88,-0.704,-0.104,-0.694,-0.864
GCGCCG,-0.374,-0.096,0.691,-0.165,-0.416
CACGGG,-0.421,0.083,0.802,-0.194,-0.476
TTCTCT,0.655,0.515,0.278,0.658,0.521
GTTGAC,-0.881,-0.294,-0.609,-0.85,-0.798
GACCAC,-0.621,1.35,-0.49,-0.62,-1.15

Sequence,6-mer SELEX enrichment z-score (IMP3 KH1-4),6-mer SELEX enrichment z-score (IMP3 RRM1-2),6-mer SELEX enrichment z-score (IMP3 full-length),6-mer SELEX enrichment z-score (IMP3 KH1-2),6-mer SELEX enrichment z-score (IMP3 KH3-4)
CAGTAT,0.453,0.227,0.411,0.413,0.526
TGGAAA,0.08,-1.09,-0.827,-0.174,0.253
TGTGCT,0.219,0.168,-0.085,0.113,0.218
CCCCGA,-1.88,-1.43,-1.49,-1.47,-2.25
GACCCT,-1.06,-0.699,-0.951,-1.02,-1.38
TCGTAT,-0.095,0.286,-0.124,-0.112,0.011
CCTGCT,-0.273,-0.048,-0.335,-0.221,-0.387
TCAGCT,-0.008,0.594,0.562,0.081,-0.036
AAACAG,-0.29,-0.135,0.022,0.03,0.15
GGTTCA,0.165,0.473,0.456,0.143,0.285
GACATA,1.08,0.195,0.797,0.883,1.24
AAATAG,0.767,-1.15,-0.482,0.571,1.49
ACGTGT,-0.211,-0.266,-0.234,-0.348,-0.212
GACGGA,-0.378,-1.07,-0.318,-0.368,-0.352
TCCCAG,-0.894,-0.401,-0.587,-0.875,-1.06
ATAAGC,0.224,-0.36,-0.139,0.047,0.397
GGTGCA,0.22,0.232,0.344,0.163,0.194
TAATGC,0.535,-0.237,-0.186,0.399,0.593
CACCCG,-1.23,-0.702,-0.816,-1.24,-1.86
AGTCTT,-0.185,0.317,0.096,-0.152,-0.028
ACTGGC,0.493,0.274,0.603,0.331,0.225
CTCGCA,-0.326,0.355,0.199,-0.213,-0.438
AAAACG,-2.28,-2.76,-2.93,-2.29,-1.63
CACCTA,-0.742,-0.266,-0.833,-0.71,-1.08

Sequence,6-mer SELEX enrichment z-score (IMP3 KH1-4),6-mer SELEX enrichment z-score (IMP3 RRM1-2),6-mer SELEX enrichment z-score (IMP3 full-length),6-mer SELEX enrichment z-score (IMP3 KH1-2),6-mer SELEX enrichment z-score (IMP3 KH3-4)
AACCAG,-0.654,-0.132,-0.798,-0.674,-0.849
TTTGGC,-0.035,0.386,0.031,-0.025,0.142
ACAAAG,-0.091,-0.399,-0.239,-0.292,0.073
GAGAAT,0.463,-0.898,-0.493,0.248,0.879
AATGTT,0.464,-0.299,-0.324,0.118,0.545
CGGATA,0.203,-0.406,-0.089,0.08,0.399
GGGTAT,-0.027,0.332,0.16,0.129,0.279
GTGTGC,0.484,0.114,0.16,0.24,0.219
ATATAG,1.61,0.058,0.569,1.26,2.06
TAAATA,1.25,-0.878,-0.363,1.17,2.35
TAACTC,-0.285,0.006,-0.539,-0.085,-0.261
GCACTG,0.511,0.289,0.862,0.392,0.074
CGTATT,-0.533,0.03,-0.378,-0.435,-0.35
TACGTT,-0.015,0.098,-0.206,-0.094,0.049
CGGATC,-0.002,0.07,0.378,-0.096,-0.167
TAAGAG,-0.201,-0.671,-0.496,-0.253,0.297
GAAATC,-0.554,-0.595,-0.67,-0.714,-0.631
GGCTGA,-0.217,0.065,0.102,-0.171,-0.05
CTTTCG,-0.199,0.199,-0.141,-0.184,-0.126
AGACGT,-1.27,-0.652,-0.632,-1.21,-1.06
GTGGGA,0.156,0.054,0.094,0.287,0.332
CCAGTA,0.076,-0.132,0.059,-0.061,-0.094
ACACGT,-0.057,0.246,0.502,-0.308,-0.371
GTTCTG,0.124,0.219,0.067,0.094,0.116

Sequence,6-mer SELEX enrichment z-score (IMP3 KH1-4),6-mer SELEX enrichment z-score (IMP3 RRM1-2),6-mer SELEX enrichment z-score (IMP3 full-length),6-mer SELEX enrichment z-score (IMP3 KH1-2),6-mer SELEX enrichment z-score (IMP3 KH3-4)
TTAGAT,0.754,-0.004,0.022,0.501,1.09
AACTTA,0.638,-0.512,-0.508,0.634,1.08
CACCGA,-1.5,-0.615,-0.466,-1.18,-1.92
AAGTGC,-0.266,-0.393,-0.301,-0.354,-0.216
CAGCCG,0.001,-0.159,0.64,0.042,-0.467
AGCGCT,-1.07,0.041,-0.231,-0.921,-0.816
TAAGGC,0.462,0.143,0.32,0.251,0.726
AGCCAC,-0.108,0.132,0.321,-0.172,-0.687
TCGTTG,-0.325,0.275,-0.165,-0.333,-0.214
CACGCT,0.198,0.373,0.393,0.305,-0.131
TGGGGC,0.556,0.362,0.547,0.681,0.813
GGCGCG,0.343,0.35,0.939,0.485,0.36
ACCGTA,-0.967,-0.767,-0.751,-0.782,-1.08
GCCGTG,-0.29,-0.272,0.066,-0.279,-0.376
GTGTTG,-0.273,0.359,-0.2,-0.211,-0.074
GAATGA,1.14,-1.5,-0.846,0.553,1.68
TCGCGG,-0.21,0.208,0.3,-0.114,-0.121
CCCTCT,-0.073,0.087,-0.334,-0.046,-0.443
CATATT,1.95,0.834,1.2,1.97,2.23
GCCCAG,-1.38,-0.605,-0.604,-1.2,-1.5
AACGAC,-1.33,-1.49,-1.59,-1.34,-1.62
TCTCTT,0.445,0.585,0.27,0.531,0.473
GAGCGT,-3.85,-0.205,-2.04,-3.61,-3.47
AATGGT,0.129,-0.071,-0.085,0.007,0.287
